# Experimental data taken from the BET-seq Pho4 binding data (Le et al. 2018).
# The list shows a part of the results. The energies were worked out here from pooled read counts, against the library average; single values are noisy.
# Target: T1, Pho4 (S. cerevisiae) (UniProt P07270)
# T1 sequence: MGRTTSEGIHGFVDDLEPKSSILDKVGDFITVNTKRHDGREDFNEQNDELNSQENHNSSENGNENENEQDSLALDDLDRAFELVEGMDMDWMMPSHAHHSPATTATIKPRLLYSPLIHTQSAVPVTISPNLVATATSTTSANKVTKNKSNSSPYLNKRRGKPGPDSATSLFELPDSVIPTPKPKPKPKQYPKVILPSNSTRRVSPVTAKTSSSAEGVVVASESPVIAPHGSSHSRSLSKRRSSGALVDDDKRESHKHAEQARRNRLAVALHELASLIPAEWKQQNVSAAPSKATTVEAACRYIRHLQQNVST
# Test: relative binding free energy (BET-seq); higher = weaker binding
# Conditions: reference: library average
row,Sequence,relative binding free energy
1,CGTGGCACGTGTAAGC,0.14 kcal/mol
2,TGTAGCACGTGAGGCT,0.04 kcal/mol
3,TGTAACACGTGATGGA,0.04 kcal/mol
4,TGGGGCACGTGGAAGT,-0.06 kcal/mol
5,ATGAGCACGTGTGTCA,0 kcal/mol
6,ATGGTCACGTGGTTTT,0.21 kcal/mol
7,AGTGTCACGTGGTTAA,-0.15 kcal/mol
8,GTGGTCACGTGGGGCG,0.09 kcal/mol
9,CGTCTCACGTGGGGTT,-0.07 kcal/mol
10,ACTGGCACGTGGGGAA,-0.14 kcal/mol
11,GAATGCACGTGGCTGG,-0.03 kcal/mol
12,AACGGCACGTGTTTGA,-0.05 kcal/mol
13,AGAGGCACGTGCGGGG,-0.22 kcal/mol
14,TTTTGCACGTGTTTCG,0.05 kcal/mol
15,TAGATCACGTGATAAT,0.24 kcal/mol
16,TTCCTCACGTGGGGGT,-0.02 kcal/mol
17,TTTTTCACGTGGACCG,0.22 kcal/mol
18,TTGTACACGTGGGGGA,-0.01 kcal/mol
19,AGGGGCACGTGGTAGC,-0.2 kcal/mol
20,GAGTGCACGTGATCTG,0.12 kcal/mol
21,GAATTCACGTGGTCAG,0.36 kcal/mol
22,GTAATCACGTGGTCTT,0.14 kcal/mol
23,TTTGTCACGTGTTATG,0.06 kcal/mol

row,Sequence,relative binding free energy
1,GGCGGCACGTGCTTGG,-0.21 kcal/mol
2,ATTACCACGTGTGGGT,-0.04 kcal/mol
3,TTAGACACGTGGTTAC,0.01 kcal/mol
4,TGTGTCACGTGGAGTC,0.12 kcal/mol
5,ATTATCACGTGAGTCT,0.41 kcal/mol
6,GTCTGCACGTGATGAT,0.16 kcal/mol
7,TAGGTCACGTGAAGCG,0.22 kcal/mol
8,CGCGGCACGTGGGGGG,-0.23 kcal/mol
9,TGGTTCACGTGCGAAA,0.26 kcal/mol
10,TTTTTCACGTGGTTTA,0.26 kcal/mol
11,AGAATCACGTGGGAAG,0.22 kcal/mol
12,AGGGACACGTGGAGCT,-0.05 kcal/mol
13,AATGACACGTGTTTGG,0.06 kcal/mol
14,AGGGGCACGTGTGCAT,-0.16 kcal/mol
15,CATATCACGTGTGTGG,-0.08 kcal/mol
16,ACGGGCACGTGTGTAG,-0.13 kcal/mol
17,GTTATCACGTGTTCTT,0.23 kcal/mol
18,TAGGACACGTGCATGT,0.06 kcal/mol
19,TATTACACGTGTGGTG,0.04 kcal/mol
20,TATTTCACGTGCTCGT,0.17 kcal/mol
21,TGAATCACGTGATAAG,0.26 kcal/mol
22,TTAAGCACGTGAGCTT,0.22 kcal/mol
23,ATATTCACGTGGGAAG,0.12 kcal/mol

row,Sequence,relative binding free energy
1,CTGTACACGTGAGGGG,0.3 kcal/mol
2,CATTACACGTGTGTGT,0.14 kcal/mol
3,TTGAACACGTGTGAGA,0.08 kcal/mol
4,TGTATCACGTGTTTCG,0.17 kcal/mol
5,TGTCCCACGTGATGGG,0.1 kcal/mol
6,TTATACACGTGTGGGA,0.1 kcal/mol
7,GATAGCACGTGGTCAT,0.06 kcal/mol
8,AGGTTCACGTGGTTAC,0.19 kcal/mol
9,ATAAGCACGTGGTGTT,-0.15 kcal/mol
10,GTTGACACGTGAGATG,0.2 kcal/mol
11,ATGAGCACGTGATAGG,0.04 kcal/mol
12,AGGTTCACGTGATAGT,0.32 kcal/mol
13,TTCATCACGTGGTATA,0.12 kcal/mol
14,CGGAGCACGTGTGGAA,0.04 kcal/mol
15,TAAAGCACGTGCGTGG,-0.2 kcal/mol
16,GGGTACACGTGGGTGT,-0.02 kcal/mol
17,CTAGGCACGTGGGGAT,-0.2 kcal/mol
18,GTTGGCACGTGTAGGT,0.07 kcal/mol
19,AATCTCACGTGGGGGC,0.14 kcal/mol
20,TATGTCACGTGGATCT,0.03 kcal/mol
21,GGGAACACGTGTTTGA,0.05 kcal/mol
22,GTACACACGTGTGTGT,0.06 kcal/mol
23,AAGTGCACGTGCTTGG,-0.06 kcal/mol

row,Sequence,relative binding free energy
1,AAAAGCACGTGATGGA,0.21 kcal/mol
2,AGTTGCACGTGGGCCT,-0.16 kcal/mol
3,GGATTCACGTGTGGCG,0.25 kcal/mol
4,GGATACACGTGGATGA,0.13 kcal/mol
5,GAGGGCACGTGGGGAG,-0.1 kcal/mol
6,GTCTTCACGTGGGGCG,0 kcal/mol
7,GAAGGCACGTGGGGTG,-0.2 kcal/mol
8,CGTTTCACGTGAATGG,0.27 kcal/mol
9,AGTTTCACGTGCGTAT,0.26 kcal/mol
10,GAGGACACGTGAGTGG,0.34 kcal/mol
11,TTCTTCACGTGCTTTT,0.34 kcal/mol
12,TGTTACACGTGACAGT,0.07 kcal/mol
13,TATATCACGTGGAGAT,0.21 kcal/mol
14,TTATGCACGTGGATGT,-0.16 kcal/mol
15,CTCGTCACGTGATTTG,0.22 kcal/mol
16,GGGTTCACGTGGTCTG,0.15 kcal/mol
17,AGGTTCACGTGAGAGC,0.51 kcal/mol
18,CTGAGCACGTGGGAAT,-0.04 kcal/mol
19,CTGTGCACGTGAAGCG,0.29 kcal/mol
20,TATGCCACGTGTGTGA,-0.01 kcal/mol
21,GTTGGCACGTGTTTTA,0.04 kcal/mol
22,GGACTCACGTGCGGGG,0.2 kcal/mol
23,TTTGTCACGTGGAATA,0.14 kcal/mol

row,Sequence,relative binding free energy
1,TTAGTCACGTGGGCGT,-0.06 kcal/mol
2,ACGGTCACGTGTTAAG,0.17 kcal/mol
3,GCGCGCACGTGTTGGG,0 kcal/mol
4,GGTTACACGTGCGGTG,0.1 kcal/mol
5,GGATGCACGTGTGTGT,-0.02 kcal/mol
6,TGACTCACGTGGGCTG,0.14 kcal/mol
7,GGAATCACGTGGAGTG,0.08 kcal/mol
8,TAAGTCACGTGATGAT,0.23 kcal/mol
9,GTTTACACGTGTAATA,0.16 kcal/mol
10,TTTATCACGTGTTGGA,0.16 kcal/mol
11,TTGCGCACGTGAGTTT,0.18 kcal/mol
12,TCGATCACGTGTGTGG,0.13 kcal/mol
13,GTTATCACGTGCGTGA,0.06 kcal/mol
14,ATTGTCACGTGTCGTG,0.09 kcal/mol
15,TGGTTCACGTGATTAT,0.43 kcal/mol
16,TACAGCACGTGGTTGG,-0.06 kcal/mol
17,GGTGACACGTGCGGAG,-0.07 kcal/mol
18,GGTGGCACGTGTGTAA,0.05 kcal/mol
19,ATAAGCACGTGGGAAT,-0.13 kcal/mol
20,AAAGGCACGTGGAGTT,-0.12 kcal/mol
21,TGTTGCACGTGATACT,0 kcal/mol
22,TTAAGCACGTGCATTT,-0.1 kcal/mol
23,GTTCTCACGTGTGGGG,0.28 kcal/mol
